# Results published in US20250325691A1, “HER2-GST-SN-38 COMPLEX, AND PHARMACEUTICAL COMPOSITION COMPRISING SAME FOR PREVENTING OR TREATING PROLIFERATIVE DISEASES” (priority 2022, published 2025).
# B1: KMD111 (conjugate)
# chain: MAEKPKLHYFNARGRMESTRWLLAAAGVEFEEKFIKSAEDLDKLRNDGYLMFQQVPMVEIDGMKLVQTRAILNYIASKYNLYGKDIKERALIDMYIEGIADLGEMILLLPVCPPEEKDAKLALIKEKIKNRYFPAFEKVLKSHGQDYLVGNKLSRADIHLVELLYYVEELDSSLISSFPLLKALKTRISNLPTVKKFLQPGSPRKPPMDEKSLEEARKIFRFSGGGSGGGSGGGSGGGSGGGSGGGVDNKFNKEMRNAYWEIALLPNLNNQQKRAFIRSLYDDPSQSANLLAEAKKLNDAQAPK
# Key:
# [1] = Body weight and clinical symptoms in MKN45-transplanted mice; assay type: in vivo, mouse; details: 3, 6, 12 mg/kg IV
# Description: (§1) Specifically, for the anticancer efficacy test, 6-week-old NIG mice (NOD/SCID, GH Bio Co., Ltd.) were purchased and bred in an environment of free access to feed and water, acclimated for more than 10 days, and then transplanted with tumor cells. As the tumor cells, HER2-positive gastric cancer MKN45 cells were subcutaneously administered at a dose of 5×10^6 cells/100 μL onto a fixed site on the left flank. After 1 week, a tumor was measured until the start of test substance administration, and individuals having tumors reached a size of about 150 mm^3 were selected and randomly distributed to each test group. Then, administration began.
# The test group was divided into a PBS-administered control group and KMD111-administered groups at 3 mg/kg, 6 mg/kg, and 12 mg/kg based on SN-38, having three mice per group. Intravenous injection (IV) was performed once every three days for 21 days, a total of eight times. Then, the tumor size and body weight were measured from Day 11 after the cancer cell transplantation (Day 0) to the end date (for 32 days). The tumor size, relative tumor volume (RTV), and tumor growth inhibition % (TGI %) were calculated according to the following equations, by measuring a long axis length and a short axis length of the tumor. […]
# MKN45 tumor = assay: In vivo anticancer efficacy in mouse model transplanted with MKN45; details: 3, 6, 12 mg/kg IV, compared to PBS-administered group
# Description: To confirm the anticancer effect of the KMD111 against target tumor cells, tests were performed in an in vivo environment using a mouse animal model transplanted with a human gastric cancer cell line MKN45.
# as §1
# The test group was divided into a PBS-administered control group and KMD111-administered groups at 3 mg/kg, 6 mg/kg, and 12 mg/kg based on SN-38, having three mice per group. […] Then, the tumor size and body weight were measured from Day 11 after the cancer cell transplantation (Day 0) to the end date (for 32 days). The tumor size, relative tumor volume (RTV), and tumor growth inhibition % (TGI %) were calculated according to the following equations, by measuring a long axis length and a short axis length of the tumor.
molecule,measurement,setting,value
B1,body weight,[1],weight loss was observed
same,clinical symptoms,[1],no special clinical symptoms were observed
same,tumor size,MKN45 tumor,significant reduction in tumor size in a concentration-dependent manner
